# Test results taken from article PMC4706423.
# No constants are given. Whether binding was seen depends on the method and setting. Some binding calls cover weakened binding; strength is not graded here. Tags and fused reporters may be left off the sequences shown.
# T1: AtCFL1 with C171 and C174 residues mutated (C171A C174A), GAL4 DNA binding domain fusion (Arabidopsis thaliana) (UniProt Q5HZ54)
# T1 sequence: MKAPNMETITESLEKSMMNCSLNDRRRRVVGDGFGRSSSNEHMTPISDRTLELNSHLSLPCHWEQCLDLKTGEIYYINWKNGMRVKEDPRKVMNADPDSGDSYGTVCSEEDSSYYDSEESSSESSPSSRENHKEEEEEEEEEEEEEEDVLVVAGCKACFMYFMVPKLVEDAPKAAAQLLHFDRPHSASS
# T2: AtCFL1 with C155 and C158 residues mutated (C155A C158A), GAL4 DNA binding domain fusion (Arabidopsis thaliana) (UniProt Q5HZ54)
# T2 sequence: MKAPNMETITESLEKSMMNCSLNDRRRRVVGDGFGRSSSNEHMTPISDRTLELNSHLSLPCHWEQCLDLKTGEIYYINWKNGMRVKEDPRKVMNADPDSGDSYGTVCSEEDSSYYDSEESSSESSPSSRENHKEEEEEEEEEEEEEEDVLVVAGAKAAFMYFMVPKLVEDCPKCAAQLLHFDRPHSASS
# T3: AtCFL1 C77, C-terminal 77 amino acid residues of AtCFL1, GAL4 DNA binding domain fusion (Arabidopsis thaliana) (UniProt Q5HZ54)
# T3 sequence: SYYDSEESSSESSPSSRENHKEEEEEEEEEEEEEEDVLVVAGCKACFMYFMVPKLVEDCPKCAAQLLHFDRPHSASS
# T4: AtCFL1 ΔC20, AtCFL1 with the C-terminal 20 amino acid residues deleted, GAL4 DNA binding domain fusion (Arabidopsis thaliana) (UniProt Q5HZ54)
# T4 sequence: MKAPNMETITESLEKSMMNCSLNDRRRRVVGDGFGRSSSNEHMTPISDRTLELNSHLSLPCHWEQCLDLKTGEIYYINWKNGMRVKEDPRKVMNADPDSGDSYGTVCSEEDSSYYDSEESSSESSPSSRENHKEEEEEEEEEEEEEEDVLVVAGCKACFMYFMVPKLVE
# T5: AtCFL1N, N-terminal of AtCFL1 with 70 amino acid residues, GAL4 DNA binding domain fusion (Arabidopsis thaliana) (UniProt Q5HZ54)
# T5 sequence: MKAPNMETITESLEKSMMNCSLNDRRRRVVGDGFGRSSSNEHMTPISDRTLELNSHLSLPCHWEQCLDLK
# T6: AtCFL1 C98, C-terminal 98 amino acid residues of AtCFL1, GAL4 DNA binding domain fusion (Arabidopsis thaliana) (UniProt Q5HZ54)
# T6 sequence: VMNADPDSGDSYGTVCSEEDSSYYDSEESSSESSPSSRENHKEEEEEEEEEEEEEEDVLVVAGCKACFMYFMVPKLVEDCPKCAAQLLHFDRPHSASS
# T7: AtCFL1, full length, GAL4 DNA binding domain fusion (pDEST32-AtCFL1) (Arabidopsis thaliana) (UniProt Q5HZ54)
# T7 sequence: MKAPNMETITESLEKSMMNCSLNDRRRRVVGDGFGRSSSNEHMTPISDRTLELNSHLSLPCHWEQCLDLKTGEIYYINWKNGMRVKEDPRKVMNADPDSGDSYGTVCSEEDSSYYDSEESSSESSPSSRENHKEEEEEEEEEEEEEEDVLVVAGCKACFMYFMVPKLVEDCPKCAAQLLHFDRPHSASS
# T8: AtCFL1 with C155, C158, C171 and C174 residues mutated (C155A C158A C171A C174A), GAL4 DNA binding domain fusion (Arabidopsis thaliana) (UniProt Q5HZ54)
# T8 sequence: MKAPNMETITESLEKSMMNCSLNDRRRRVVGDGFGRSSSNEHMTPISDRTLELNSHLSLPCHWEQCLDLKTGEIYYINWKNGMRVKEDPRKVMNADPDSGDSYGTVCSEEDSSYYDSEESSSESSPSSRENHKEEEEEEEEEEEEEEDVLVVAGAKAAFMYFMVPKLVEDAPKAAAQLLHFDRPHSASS
# T9: AtCFL1 C50, C-terminal 50 amino acid residues of AtCFL1, GAL4 DNA binding domain fusion (Arabidopsis thaliana) (UniProt Q5HZ54)
# T9 sequence: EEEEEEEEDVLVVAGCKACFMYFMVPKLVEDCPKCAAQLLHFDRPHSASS
# T10: AtCFL1C, C-terminal of AtCFL1 with 119 amino acid residues, GAL4 DNA binding domain fusion (Arabidopsis thaliana) (UniProt Q5HZ54)
# T10 sequence: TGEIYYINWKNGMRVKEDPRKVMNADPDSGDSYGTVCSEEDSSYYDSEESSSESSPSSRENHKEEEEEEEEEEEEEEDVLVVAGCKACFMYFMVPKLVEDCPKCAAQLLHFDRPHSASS
# How the values were obtained:
# Test in all cases: two-hybrid; bait (pDEST32) and prey (pDEST22) co-transformed into yeast strain AH109; growth on SD-Leu-Trp-His and SD-Leu-Trp-His with 5 mM 3-amino-1,2,4-triazole; three biological replicates
# [1] = target: T1, AtCFL1 with C171 and C174 residues mutated (C171A C174A), GAL4 DNA binding domain fusion (Arabidopsis thaliana)
# [2] = target: T2, AtCFL1 with C155 and C158 residues mutated (C155A C158A), GAL4 DNA binding domain fusion (Arabidopsis thaliana)
# [3] = target: T3, AtCFL1 C77, C-terminal 77 amino acid residues of AtCFL1, GAL4 DNA binding domain fusion (Arabidopsis thaliana)
# [4] = target: T4, AtCFL1 ΔC20, AtCFL1 with the C-terminal 20 amino acid residues deleted, GAL4 DNA binding domain fusion (Arabidopsis thaliana)
# [5] = target: T5, AtCFL1N, N-terminal of AtCFL1 with 70 amino acid residues, GAL4 DNA binding domain fusion (Arabidopsis thaliana)
# [6] = target: T6, AtCFL1 C98, C-terminal 98 amino acid residues of AtCFL1, GAL4 DNA binding domain fusion (Arabidopsis thaliana)
# [7] = target: T7, AtCFL1, full length, GAL4 DNA binding domain fusion (pDEST32-AtCFL1) (Arabidopsis thaliana)
# [8] = target: T8, AtCFL1 with C155, C158, C171 and C174 residues mutated (C155A C158A C171A C174A), GAL4 DNA binding domain fusion (Arabidopsis thaliana)
# [9] = target: T9, AtCFL1 C50, C-terminal 50 amino acid residues of AtCFL1, GAL4 DNA binding domain fusion (Arabidopsis thaliana)
# [10] = target: T10, AtCFL1C, C-terminal of AtCFL1 with 119 amino acid residues, GAL4 DNA binding domain fusion (Arabidopsis thaliana)
binder,measurement,setting,value
"HDG1, HD-ZIP IV transcription factor, two-hybrid prey (protein, UniProt Q9M2E8 1-808) MNFNGFLDDGAGASKLLSDAPYNNHFSFSAVDTMLGSAAIAPSQSLPFSSSGLSLGLQTNGEMSRNGEIMESNVSRKSSRGEDVESRSESDNAEAVSGDDLDTSDRPLKKKKRYHRHTPKQIQDLESVFKECAHPDEKQRLDLSRRLNLDPRQVKFWFQNRRTQMKTQIERHENALLRQENDKLRAENMSVREAMRNPMCGNCGGPAVIGEISMEEQHLRIENSRLKDELDRVCALTGKFLGRSNGSHHIPDSALVLGVGVGSGGCNVGGGFTLSSPLLPQASPRFEISNGTGSGLVATVNRQQPVSVSDFDQRSRYLDLALAAMDELVKMAQTREPLWVRSSDSGFEVLNQEEYDTSFSRCVGPKQDGFVSEASKEAGTVIINSLALVETLMDSERWAEMFPSMVSRTSTTEIISSGMGGRNGALHLMHAELQLLSPLVPVRQVSFLRFCKQHAEGVWAVVDVSIDSIREGSSSSCRRLPSGCLVQDMANGYSKVTWIEHTEYDENHIHRLYRPLLRCGLAFGAHRWMAALQRQCECLTILMSSTVSTSTNPSPINCNGRKSMLKLAKRMTDNFCGGVCASSLQKWSKLNVGNVDEDVRIMTRKSVNNPGEPPGIILNAATSVWMPVSPRRLFDFLGNERLRSEWDILSNGGPMKEMAHIAKGHDRSNSVSLLRASAINANQSSMLILQETSIDAAGAVVVYAPVDIPAMQAVMNGGDSAYVALLPSGFAILPNGQAGTQRCAAEERNSIGNGGCMEEGGSLLTVAFQILVNSLPTAKLTVESVETVNNLISCTVQKIKAALHCDST",binding,[1],no binding
same,binding,[2],no binding
same,binding,[3],binds
same,binding,[4],no binding
same,binding,[5],no binding
same,binding,[6],binds
same,binding,[7],binds
same,binding,[8],no binding
same,binding,[9],binds
same,binding,[10],binds
